The values that follow come from publication PMC4242493.

Some of the results follow. The list includes weakly bound sequences.

The test addresses MaxL homodimer (UniProt P61244). Put plainly: universal protein-binding microarray (PBM). Particulars: PBS-based mixture, 10 nM His-tagged protein dimer, 2% milk, 200 ng/uL BSA, 50 ng/uL salmon testes DNA, 0.02% TX-100; detection with Alexa 488 anti-His …; high values mean tight binding; most listed sequences are background and not binding sites; double strand, one strand shown.
Sequence of UniProt P61244 (P61244 whole entry): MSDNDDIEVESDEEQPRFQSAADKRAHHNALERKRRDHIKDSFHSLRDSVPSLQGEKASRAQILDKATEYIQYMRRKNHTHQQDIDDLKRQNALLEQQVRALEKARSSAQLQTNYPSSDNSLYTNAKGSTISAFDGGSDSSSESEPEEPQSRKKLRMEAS
Turning to GCGCTTGA, the binding signal (normalized occupancy) came out at 0.0669.
Regarding GCGGCCTA, the binding signal (normalized occupancy) is 0.0689.
The value for ACTACACT was 0.0745; that for CAACCCTA was 0.0742; that for GGGAAAAC was 0.073.
The value for CCCGGACC was 0.0766.
As for GGGACCGA, the binding signal (normalized occupancy) amounted to 0.067.
The value for AATTTGGG was 0.0765; that for GCCGGCAC was 0.0688; that for ACTCGGCA was 0.0722.
For the sequence CCACACCG, the binding signal (normalized occupancy) worked out at 0.0853.
The value for AGACTCCT was 0.072.
In the case of AATTCATG, the binding signal (normalized occupancy) came to 0.0813.
In the case of CGGCTCTA, the binding signal (normalized occupancy) came out at 0.0718.
Turning to ACTGACAT, the binding signal (normalized occupancy) turned out to be 0.0822.
Consider CAGTGTGC, for which the binding signal (normalized occupancy) was 0.0797.
In the case of AATCGCTA, the binding signal (normalized occupancy) amounted to 0.074.
The value for AAAATGTA was 0.0835.
As for ACGAATCG, the binding signal (normalized occupancy) worked out at 0.0746.
The value for AGGGATAA was 0.0801; that for AAGCTTGT was 0.0717; that for CTCTTCAA was 0.0719.
The value for CATGCTAA was 0.091.
As to ACACAAAC, the binding signal (normalized occupancy) came to 0.0831.
The result for GTTACAGA reads 0.0818.
Regarding AACATCGA, the binding signal (normalized occupancy) is 0.0754.
On to AAGTCTCC, for which the binding signal (normalized occupancy) is 0.0764.
With ATATTAAT, the binding signal (normalized occupancy) was 0.0838.
The value for GAAGCATC was 0.076; that for TGATCCAA was 0.0774.
The result for CACAAGAC reads 0.0757; that for CGTACGAA, 0.0668; that for ATATGAAT, 0.088.
The value for TACAACTA was 0.0731; that for AAGGTTTG was 0.072.
As for CATTCAAA, the binding signal (normalized occupancy) turned out to be 0.077.
In the case of ACGTGTTA, the binding signal (normalized occupancy) worked out at 0.109.
Take GAAGGGGA: the binding signal (normalized occupancy) was 0.0751.
The value for CCCGGGTA was 0.0702; that for ACTTTAAT was 0.0771; that for CCGAAGGA was 0.0653.
For CTCACAGC, the binding signal (normalized occupancy) is 0.0698.
Consider CAAGGAGC, for which the binding signal (normalized occupancy) was 0.0737.
With TAGTATGA, the binding signal (normalized occupancy) amounted to 0.0809.
On to GATCTTCA, for which the binding signal (normalized occupancy) worked out at 0.0714.
As for CTCCGGAA, the binding signal (normalized occupancy) turned out to be 0.0683.
For CTGCAGGC, the binding signal (normalized occupancy) worked out at 0.0687.
On to TGACTCCA, for which the binding signal (normalized occupancy) is 0.0765.
The value for AATGCGCC was 0.0731.
The value for GCGGACTA was 0.0716; that for CACAGCTC was 0.0732; that for CGATACCG was 0.0694.
In the case of GGTAAGGA, the binding signal (normalized occupancy) is 0.0701.
AGCTGATA: the binding signal (normalized occupancy) worked out at 0.0762.
Consider CGACATGA, for which the binding signal (normalized occupancy) was 0.0858.
The value for TAAGCTGA was 0.0738.
The value for AAGTGGAA was 0.072.
For the sequence ACCAGCTG, the binding signal (normalized occupancy) amounted to 0.0697.
Consider ATGATCGG, for which the binding signal (normalized occupancy) turned out to be 0.0783.
The value for GGTATCTA was 0.0852.
For GAGGAAGA, the binding signal (normalized occupancy) came to 0.075.
For CAGTCCAA, the binding signal (normalized occupancy) was found to be 0.0738.
The value for ATCCACGC was 0.109.
The value for GGCGCCGA was 0.07; that for CACAGAAC was 0.0725.
As to CCTATAAC, the binding signal (normalized occupancy) was 0.0887.
The result for GCGCACAC reads 0.0833; that for ATAGCAAT, 0.0791.
The result for AGACGTCG reads 0.0745.
The value for AATAGGGA was 0.0739.
As for ATATCCTA, the binding signal (normalized occupancy) was found to be 0.0806.
AGCTCAGG: the binding signal (normalized occupancy) is 0.0712.
Take GTTATCGA: the binding signal (normalized occupancy) is 0.074.
Regarding AGATAGAC, the binding signal (normalized occupancy) stood at 0.0744.
In the case of CATTATGG, the binding signal (normalized occupancy) is 0.0813.
The value for ACGCGCGC was 0.0821; that for ACCCATGA was 0.0882; that for CTCCTCCA was 0.0779.
Consider GGTGAGAA, for which the binding signal (normalized occupancy) was determined as 0.071.
In the case of ACCCTAAA, the binding signal (normalized occupancy) stood at 0.0716.
The value for ATAATTTG was 0.0804.
The value for CTCTGGGC was 0.0676.
Turning to CACCCTGA, the binding signal (normalized occupancy) stood at 0.0786.
The result for ACTGTGTC reads 0.0697.
The value for TACTAATA was 0.0814.
The result for AAGCGGAA reads 0.0749; that for CCCGTAAG, 0.0811.
As to CTAGGTGA, the binding signal (normalized occupancy) stood at 0.0754.
The value for AATGGACG was 0.0788; that for GGATCGCC was 0.0778.
For the sequence CCCAACTA, the binding signal (normalized occupancy) stood at 0.0744.
The value for AGAGAGTG was 0.0746; that for CACAGGGG was 0.083.
Take ATTGACGC: the binding signal (normalized occupancy) came to 0.0771.
As for AGGTGACT, the binding signal (normalized occupancy) was 0.0768.
Turning to GCCGTTCC, the binding signal (normalized occupancy) was 0.0719.
The value for ATTGCCCC was 0.0797; that for CAGTTGTC was 0.074.
The result for ATGCAGGG reads 0.0792; that for ACCTTTCA, 0.0774; that for CTCTACAA, 0.0776.
Turning to AATCATCT, the binding signal (normalized occupancy) was found to be 0.0788.
On to CTGTTGAA, for which the binding signal (normalized occupancy) was 0.0758.
ACGAGACC: the binding signal (normalized occupancy) amounted to 0.0848.
With ACATACTC, the binding signal (normalized occupancy) came out at 0.073.
The value for AGGCCGTC was 0.0709.
The value for AGGACACA was 0.0745.
For the sequence AGCCAGAT, the binding signal (normalized occupancy) was determined as 0.0712.
GCTTACCA: the binding signal (normalized occupancy) was 0.0723.
The value for AGAGCAAC was 0.066; that for GTGAACGA was 0.0773; that for CGTTTGTA was 0.0749.
The result for TGGGTAAA reads 0.0757.
The value for AAGTGCTA was 0.0755; that for CAAGAAAG was 0.0721.
With CCTAGGGA, the binding signal (normalized occupancy) was 0.0699.
The value for AGAGCAAG was 0.072; that for CACTGGCG was 0.0717.
The result for CCCCTGAC reads 0.078; that for GAGAGTCC, 0.0698; that for CCGCTCGA, 0.0694.
Consider ATTCGGCC, for which the binding signal (normalized occupancy) was 0.0712.
The result for ACCATGGG reads 0.0927; that for GACACAGA, 0.0724.
Consider TGTGGCAA, for which the binding signal (normalized occupancy) came to 0.0751.
The result for ACCCTGGC reads 0.0697.
The value for CAATCACA was 0.0818.
On to GCTATGAC, for which the binding signal (normalized occupancy) was determined as 0.071.
As for AATGGGCT, the binding signal (normalized occupancy) amounted to 0.0705.
For the sequence AACTCGCG, the binding signal (normalized occupancy) was found to be 0.0749.
The value for ACAAGTCT was 0.0786; that for ATAAAGAG was 0.0777.
In the case of AAACACGG, the binding signal (normalized occupancy) was 0.0741.
As to CAGAGAGG, the binding signal (normalized occupancy) is 0.0696.
The value for CACTGCTG was 0.0746; that for CAATGCCG was 0.0728; that for ACCCTCTC was 0.077.
The result for GATCGGAC reads 0.0691.
The result for ATAATGTC reads 0.0884.
As for GGATTATA, the binding signal (normalized occupancy) stood at 0.079.
Take CGAAGCAG: the binding signal (normalized occupancy) turned out to be 0.0758.
The result for AGAGCCCG reads 0.0656; that for CCGTTGTA, 0.0764.
With AGTAGCTA, the binding signal (normalized occupancy) was found to be 0.0715.
As for CAGTACGG, the binding signal (normalized occupancy) is 0.0731.
For the sequence AGATCTAT, the binding signal (normalized occupancy) amounted to 0.077.
Regarding ATTAGGGC, the binding signal (normalized occupancy) stood at 0.0749.
The result for ATAGATCA reads 0.0776; that for ATGTTCAA, 0.0769.
As to ACATCCAT, the binding signal (normalized occupancy) amounted to 0.0873.
The result for ACGCATTG reads 0.0891.
On to GATCATAC, for which the binding signal (normalized occupancy) amounted to 0.079.
For CCTACGTA, the binding signal (normalized occupancy) is 0.0803.
Consider ATGTATAA, for which the binding signal (normalized occupancy) was determined as 0.0887.
The result for GGGAACTA reads 0.0712.
The value for ACACTACC was 0.0816.
In the case of ATGTGGCC, the binding signal (normalized occupancy) turned out to be 0.0917.
On to TCTCAGAA, for which the binding signal (normalized occupancy) stood at 0.0737.
On to ACGAGCCC, for which the binding signal (normalized occupancy) stood at 0.0666.
For the sequence CCGATTTC, the binding signal (normalized occupancy) was 0.0698.
The value for TCACTTAA was 0.078; that for ATTCGCAC was 0.0748; that for ATATCACC was 0.0854.
In the case of ATCGATGG, the binding signal (normalized occupancy) worked out at 0.0804.
The value for GAAGGAAC was 0.0744; that for CATCTAGA was 0.0769; that for CCAGCCAC was 0.0768.
For GACACACA, the binding signal (normalized occupancy) was 0.0862.
Consider CAATCGAC, for which the binding signal (normalized occupancy) turned out to be 0.0743.
In the case of CGAGCGAA, the binding signal (normalized occupancy) amounted to 0.0703.
The value for ATTAGCTA was 0.0721; that for AAGCACGT was 0.102.
